Measured values taken from paper PMC12820563.
The list shows a part of the results. The list includes weakly bound sequences.

Target: T1, MBP-FoxP3dN (UniProt Q99JB6)
T1 sequence: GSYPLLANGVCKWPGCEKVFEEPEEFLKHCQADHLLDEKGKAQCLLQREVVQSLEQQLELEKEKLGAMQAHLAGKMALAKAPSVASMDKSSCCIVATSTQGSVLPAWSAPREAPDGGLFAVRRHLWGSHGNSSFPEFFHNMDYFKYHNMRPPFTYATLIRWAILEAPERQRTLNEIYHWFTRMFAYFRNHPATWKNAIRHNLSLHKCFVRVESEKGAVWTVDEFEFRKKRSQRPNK
Test: PD-seq (MBP pull-down with sequencing)
Settings: 20 mM Tris-HCl pH 7.5, 100 mM NaCl, 1.5 mM MgCl2, 0.4 uM protein, 0.1 uM dsDNA library, 30 min, room temperature, amylose pull-down; high values mean tight binding; double strand, one strand shown

Sequence | binding signal (RPM ratio (pull-down/input))
GATGATTGTTCTCCCAGCTGATGAATTGATACGATCGAGTAAACAAATTTTCCTAATCTTTCTGTTCAAGCGCCATCTAC | 0.981
GATGATTGTTCTCCCAGCTGATGAATTATTGCCTTCGAGTAAACAAATTTTCCTAATCTTTCTGTTCAAGCGCCATCTAC | 3.08
GATGATTGTTCTCCCAGCTGATGAATTGGCGCCCTCGAGTAAACAAATTTTCCTAATCTTTCTGTTCAAGCGCCATCTAC | 0.628
GATGATTGTTCTCCCAGCTGATGAATTGATGGTGTCGAGTAAACAAATTTTCCTAATCTTTCTGTTCAAGCGCCATCTAC | 1.19
GATGATTGTTCTCCCAGCTGATGAATTACTTCCTTCGAGTAAACAAATTTTCCTAATCTTTCTGTTCAAGCGCCATCTAC | 0.261
GATGATTGTTCTCCCAGCTGATGAATTCTGCTCATCGAGTAAACAAATTTTCCTAATCTTTCTGTTCAAGCGCCATCTAC | 0.455
GATGATTGTTCTCCCAGCTGATGAATTTCTGCGCTCGAGTAAACAAATTTTCCTAATCTTTCTGTTCAAGCGCCATCTAC | 0.46
GATGATTGTTCTCCCAGCTGATGAATTATCCAATTCGAGTAAACAAATTTTCCTAATCTTTCTGTTCAAGCGCCATCTAC | 0.269
GATGATTGTTCTCCCAGCTGATGAATTCCATTAATCGAGTAAACAAATTTTCCTAATCTTTCTGTTCAAGCGCCATCTAC | 0.25
GATGATTGTTCTCCCAGCTGATGAATTGGCGAAATCGAGTAAACAAATTTTCCTAATCTTTCTGTTCAAGCGCCATCTAC | 0.393
GATGATTGTTCTCCCAGCTGATGAATTTACGACTTCGAGTAAACAAATTTTCCTAATCTTTCTGTTCAAGCGCCATCTAC | 0.711
GATGATTGTTCTCCCAGCTGATGAATTAGCTTTGTCGAGTAAACAAATTTTCCTAATCTTTCTGTTCAAGCGCCATCTAC | 2.56
GATGATTGTTCTCCCAGCTGATGAATTAGATGAGTCGAGTAAACAAATTTTCCTAATCTTTCTGTTCAAGCGCCATCTAC | 0.504
GATGATTGTTCTCCCAGCTGATGAATTAGCAACGTCGAGTAAACAAATTTTCCTAATCTTTCTGTTCAAGCGCCATCTAC | 1.13
GATGATTGTTCTCCCAGCTGATGAATTGCGGAGATCGAGTAAACAAATTTTCCTAATCTTTCTGTTCAAGCGCCATCTAC | 0.553
GATGATTGTTCTCCCAGCTGATGAATTACTTGTGTCGAGTAAACAAATTTTCCTAATCTTTCTGTTCAAGCGCCATCTAC | 0.98
GATGATTGTTCTCCCAGCTGATGAATTTTTCGACTCGAGTAAACAAATTTTCCTAATCTTTCTGTTCAAGCGCCATCTAC | 0.265
GATGATTGTTCTCCCAGCTGATGAATTCCACGCATCGAGTAAACAAATTTTCCTAATCTTTCTGTTCAAGCGCCATCTAC | 0.972
GATGATTGTTCTCCCAGCTGATGAATTGTTCCCATCGAGTAAACAAATTTTCCTAATCTTTCTGTTCAAGCGCCATCTAC | 0.478
GATGATTGTTCTCCCAGCTGATGAATTTCTCTACTCGAGTAAACAAATTTTCCTAATCTTTCTGTTCAAGCGCCATCTAC | 0.313

Sequence | binding signal (RPM ratio (pull-down/input))
GATGATTGTTCTCCCAGCTGATGAATTTGAACATTCGAGTAAACAAATTTTCCTAATCTTTCTGTTCAAGCGCCATCTAC | 0.495
GATGATTGTTCTCCCAGCTGATGAATTGTTCCTATCGAGTAAACAAATTTTCCTAATCTTTCTGTTCAAGCGCCATCTAC | 0.556
GATGATTGTTCTCCCAGCTGATGAATTAACGTATTCGAGTAAACAAATTTTCCTAATCTTTCTGTTCAAGCGCCATCTAC | 1.22
GATGATTGTTCTCCCAGCTGATGAATTAACAACCTCGAGTAAACAAATTTTCCTAATCTTTCTGTTCAAGCGCCATCTAC | 0.578
GATGATTGTTCTCCCAGCTGATGAATTATCAGCTTCGAGTAAACAAATTTTCCTAATCTTTCTGTTCAAGCGCCATCTAC | 0.351
GATGATTGTTCTCCCAGCTGATGAATTATAACCGTCGAGTAAACAAATTTTCCTAATCTTTCTGTTCAAGCGCCATCTAC | 0.364
GATGATTGTTCTCCCAGCTGATGAATTTCGGTTATCGAGTAAACAAATTTTCCTAATCTTTCTGTTCAAGCGCCATCTAC | 0.994
GATGATTGTTCTCCCAGCTGATGAATTATGAAGGTCGAGTAAACAAATTTTCCTAATCTTTCTGTTCAAGCGCCATCTAC | 0.269
GATGATTGTTCTCCCAGCTGATGAATTGCTACGCTCGAGTAAACAAATTTTCCTAATCTTTCTGTTCAAGCGCCATCTAC | 0.571
GATGATTGTTCTCCCAGCTGATGAATTTCGTCGCTCGAGTAAACAAATTTTCCTAATCTTTCTGTTCAAGCGCCATCTAC | 0.505
GATGATTGTTCTCCCAGCTGATGAATTACTAACTTCGAGTAAACAAATTTTCCTAATCTTTCTGTTCAAGCGCCATCTAC | 0.543
GATGATTGTTCTCCCAGCTGATGAATTTAACACCTCGAGTAAACAAATTTTCCTAATCTTTCTGTTCAAGCGCCATCTAC | 0.871
GATGATTGTTCTCCCAGCTGATGAATTACTACCGTCGAGTAAACAAATTTTCCTAATCTTTCTGTTCAAGCGCCATCTAC | 0.386
GATGATTGTTCTCCCAGCTGATGAATTACTACACTCGAGTAAACAAATTTTCCTAATCTTTCTGTTCAAGCGCCATCTAC | 0.526
GATGATTGTTCTCCCAGCTGATGAATTTTAGGATTCGAGTAAACAAATTTTCCTAATCTTTCTGTTCAAGCGCCATCTAC | 0.258
GATGATTGTTCTCCCAGCTGATGAATTTTTTATATCGAGTAAACAAATTTTCCTAATCTTTCTGTTCAAGCGCCATCTAC | 0.31
GATGATTGTTCTCCCAGCTGATGAATTATATATTTCGAGTAAACAAATTTTCCTAATCTTTCTGTTCAAGCGCCATCTAC | 0.925
GATGATTGTTCTCCCAGCTGATGAATTGCTGAGCTCGAGTAAACAAATTTTCCTAATCTTTCTGTTCAAGCGCCATCTAC | 0.392
GATGATTGTTCTCCCAGCTGATGAATTGCGAGGTTCGAGTAAACAAATTTTCCTAATCTTTCTGTTCAAGCGCCATCTAC | 0.749
GATGATTGTTCTCCCAGCTGATGAATTGAACCGGTCGAGTAAACAAATTTTCCTAATCTTTCTGTTCAAGCGCCATCTAC | 0.244
